Molecular target: the molecule itself
Assay: cryo-EM structure

B1: human transient receptor potential vanilloid 4 (hTRPV4), truncated construct, […] N651D (domain or fragment)
chain: not shown
stoichiometry N: 4

Source: paper doi:10.1101/2020.10.13.334797 (bioRxiv, 2020)
